# From PubChem BioAssay AID686979 (National Center for Advancing Translational Sciences (NCATS), 2013)
# Where “and” joins values, the source holds several entries; their conditions need not be identical. Equal values may be shown once. Out of some 420,000 compounds screened, about 50,000 (12%) were called active. The shares of active, inactive and inconclusive entries below differ from those in the screen. Calls follow the shape of the dose curve; as a rule, active = well fitted inhibition curve with a large enough effect; inconclusive = small, poorly fitted or top-dose-only effect; inactive = flat fitted curve, though single readings scatter. Potencies of inconclusive entries are left out as doubtful fits.
# Experiment: qHTS for Inhibitors of human tyrosyl-DNA phosphodiesterase 1 (TDP1): qHTS in cells in presence of CPT; also: nearly all actives have a fitted effect of over 55% in size
# Details: chicken DT40 Tdp1-/-;hTDP1 cells + 20 nM CPT, ATP luminescence, 48 h; activity change, negative = growth inhibition: at 46.2 µM (top of the series) unless noted
# Procedure, shortened: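 Chicken DT40 Tdp1-/- cells complemented with human TDP1, 400 cells/well, exposed to compounds plus 20 nM camptothecin for at least 48 h at 37 C; viability read as ATP content by CellTiter-Glo luminescence.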
# % is scaled to controls: 0 for no effect and ±100 for the full control effect; potency is read from the fitted curve at half-maximal effect; tags tell the direction and shape of the fitted curve.
Structure (SMILES),"activity change, negative = growth inhibition",Potency
CCc1nnc(NC(=O)C2CCCN(S(=O)(=O)c3ccc(OC)cc3)C2)s1 (stereo unspecified),inactive: -29.7%,
COc1c(/C=C2\SC(=Nc3ccccc3Cl)NC2=O)cccc1[N+](=O)[O-],inactive: -6.24%,
Cc1ccc(S(=O)(=O)CCC(=O)OCC(=O)N(Cc2ccccc2)C(C)C)cc1,inactive: 12.8%,
Cc1ccc(-c2ccc(=O)n(CC(=O)N3CCN(c4cccc(C)c4)C(C)C3)n2)cc1 (stereo unspecified),,"inconclusive [inhibitor, single point]"
Cc1cc(C)c(NC(=O)CCCN2C(=O)COc3ccc(C)cc32)c(C)c1,,"inconclusive [inhibitor, single point]"
O=C(CSc1ncccn1)N/N=C/c1ccccc1[N+](=O)[O-],inactive: 6.5%,
C[C@@H]1CN([C@H](C)CO)C(=O)c2cc(NC(=O)Nc3ccc(C(F)(F)F)cc3)ccc2O[C@H]1CN(C)Cc1ccc(Cl)c(Cl)c1,,"inconclusive [inhibitor, single point]"
Cc1c(-c2ccccc2)c(-c2ccc(OCCN(C)C)cc2)n2ccccc12,,"inconclusive [inhibitor, single point]"
COc1ccc(CCC(=O)NCCOc2ccccc2Cl)cc1,,"inconclusive [inhibitor, single point]"
O=C(c1ccc(F)cc1)c1cn[nH]c1-c1ccccc1O,,"inconclusive [inhibitor, single point]"
COCCNC(=O)Cc1c(C)c2cc3c(cc2oc1=O)OC(C)(C)CC3,,"inconclusive [inhibitor, single point]"
CN(CCc1ccccc1)C(=O)c1ccc(NC(=O)Cc2ccc(NC(=O)C3CCN(C(=O)c4ccccc4)CC3)cc2)cc1,,"inconclusive [inhibitor, single point]"
C[C@@H]1C=C(C(=O)NCc2nc3ccccc3[nH]2)O[C@H](OCc2ccc(CO)cc2)C1,,active: 16.4 µM
COc1ccc(CCNC(=O)CN(c2cc(C(F)(F)F)ccc2Cl)S(C)(=O)=O)cc1,inactive: 4.93%,
CCN1CCN(C(=O)C2CCN(Cc3nc(-c4cccc(Cl)c4)oc3C)CC2)CC1,,active: 20.6 µM
CCCn1c(N)c(C(=O)CN2CCN(S(=O)(=O)c3cccc(Cl)c3)CC2)c(=O)[nH]c1=O,,"inconclusive [inhibitor, single point]"
CCCCN(C(=O)CSc1cc(C)c2ccc(OC)cc2n1)c1c(N)n(Cc2ccccc2)c(=O)[nH]c1=O,,"inconclusive [inhibitor, partial curve, poor fit]"
CC(C)NC(=O)N(C)C[C@@H]1OCCCC[C@@H](C)Oc2ccc(NC(=O)Nc3ccc(F)cc3)cc2C(=O)N([C@H](C)CO)C[C@@H]1C,inactive: -17%,
COC(=O)c1sc(NC(=O)c2cc3nc(-c4ccc(Br)cc4)cc(C(F)(F)F)n3n2)c(C(=O)OC)c1C,,"inconclusive [inhibitor, single point]"
COC(=O)C1=CN(c2ccc(F)cc2)C=C(C(=O)OC)C1c1ccc(O)cc1,inactive: 6.04%,
COc1ccccc1-c1nnc(SCC(=O)NC2CCCCC2)o1,,"inconclusive [inhibitor, single point]"
COc1ccccc1C(C)NC(=O)CCC(=O)N1CCN(S(=O)(=O)c2ccc(Cl)cc2)CC1 (stereo unspecified),,"inconclusive [inhibitor, single point]"

Structure (SMILES),"activity change, negative = growth inhibition",Potency
O=C(Cn1ccc2cc(S(=O)(=O)N3CCCCC3)ccc21)NCCc1ccc(Cl)cc1,,"inconclusive [inhibitor, single point]"
COC(=O)C1=CN(c2ccc(C)cc2)C(N)=C(C#N)C1c1ccc(OC)cc1 (stereo unspecified),,"inconclusive [inhibitor, partial curve]"
OCCN1CCN(CC(O)COCC2COc3ccccc3O2)CC1 (stereo unspecified),inactive: 4.23%,
CC1CCCN(CC(=O)Nc2ccc(S(=O)(=O)N3CCCCCC3)cc2)C1 (stereo unspecified),,"inconclusive [inhibitor, single point]"
COc1ccc([C@H]2/C=C\CN(C(=O)C3CCCC3)[C@@H](C)C(=O)N2Cc2ccc(F)cc2)cc1,,active: 13 µM
CCN(CC)C(=O)CSc1nnc(-c2cc3ccccc3cc2O)n1CC,,active: 0.92 µM
O=C(NC(=S)NNC(=O)c1ccccc1O)c1ccco1,,active: 20.6 µM
COc1ccccc1N1CCN(S(=O)(=O)CCNC(=O)CCc2ccccc2)CC1,,"inconclusive [inhibitor, partial curve, poor fit]"
Cc1cccc(C)c1NC(=O)CSc1nc(C)c(CC(=O)c2ccc(Br)cc2)c(C)c1C#N,,active: 20.6 µM
Cc1ccc2oc(-c3cccc(NC(=O)COc4ccc(Cl)cc4)c3C)nc2c1,inactive: -20.8%,
Cc1cc(NC(=O)CSc2ncn[nH]2)no1,inactive: -12.7%,
COCCCNC(=O)c1ccc(-c2nc3ccccc3nc2-c2ccccc2)cc1,,"inconclusive [inhibitor, single point]"
O=C(NCC(c1ccco1)N1CCCC1)c1ccc(S(=O)(=O)Nc2ccccc2Cl)cc1 (stereo unspecified),,"inconclusive [inhibitor, single point]"
O=C(CCNC(=O)c1ccccc1Cl)NCc1ccco1,inactive: -9.02%,
CCOC(=O)c1cc(S(=O)(=O)N2CCN(c3cc(C)ccc3C)CC2)[nH]n1,,"inconclusive [inhibitor, single point]"
CCOc1ccc(OCCC(=O)N2CCN(S(=O)(=O)c3cccc(F)c3)CC2)cc1,,"inconclusive [inhibitor, single point]"
Cc1cccc(N/C=C(\[N+](=O)[O-])S(=O)(=O)c2ccccc2)c1C,inactive: 5.38%,
CCc1nn(CC(=O)NCCCN(C)Cc2ccccc2)c(=O)c2cc3sc(C)cc3n12,,"inconclusive [inhibitor, single point]"
COc1cccc(-c2noc(C3CCCN(C(=O)c4cccc(F)c4)C3)n2)c1 (stereo unspecified),,"inconclusive [inhibitor, single point]"
COc1cccc(N/C(SCc2ccccc2Cl)=C(/C#N)C(=O)NCc2cccs2)c1,,"inconclusive [inhibitor, single point]"
CCOC(=O)N1CCC(NC(=O)Cn2ncc3c2-c2cc(C)ccc2OC3)CC1,inactive: -2.12%,
COc1ccc(Cl)cc1NC(=O)CSc1nnc(Cn2c(=O)sc3ccccc32)n1C,,"inconclusive [inhibitor, partial curve, poor fit]"

Structure (SMILES),"activity change, negative = growth inhibition",Potency
Cc1cccc(C)c1N1CC(c2nc3ccccc3n2CC(=O)OC(C)C)CC1=O (stereo unspecified),,"inconclusive [inhibitor, single point]"
COc1ccc(C(=O)NC(=S)Nc2nc(C)c(C(=O)N(C)C)s2)cc1,inactive: -24.7%,
O=C(c1ccc(-c2ccccc2)cc1)C1CCCN(C(=O)Cn2cncn2)C1 (stereo unspecified),,"inconclusive [inhibitor, single point]"
COC(=O)C[C@H]1C[C@H]2c3cc(NC(=O)Nc4ccc(C(F)(F)F)cc4)ccc3O[C@H]2[C@@H](CO)O1,,"inconclusive [inhibitor, single point]"
COc1ccccc1Nc1nn2c(=O)c3ccc(C(=O)N4CCCCC4)cc3nc2s1,,active: 20.6 µM and active: 13 µM
C[C@@H]1CN([C@@H](C)CO)S(=O)(=O)c2ccc(Br)cc2O[C@H]1CN(C)Cc1ccc(-c2ccccc2)cc1,,active: 20.6 µM
COc1cc(CO)ccc1OCc1nnnn1-c1ccc(C)cc1,,"inconclusive [inhibitor, single point]"
Nc1[nH]c(C(=O)c2ccccc2)c(-c2ccc(F)cc2)c1C(=O)NCCc1c[nH]c2ccccc12,,"inconclusive [inhibitor, single point]"
O=S(=O)(Nc1cccnc1)c1cccc(C(F)(F)F)c1,inactive: -8.66%,
c1ccc(CN2CCCC3(CCCN(Cc4nc(COc5ccccc5)no4)C3)C2)cc1 (stereo unspecified),,"inconclusive [inhibitor, single point]"
Cc1ccc(OCc2cc(C(=O)N3CC4C[C@@H]5CC3C[C@H](C4)C5)no2)cc1C,,"inconclusive [inhibitor, single point]"
COc1ccc(CNC(=O)[C@@H]2CC=C[C@@H]3CCN(Cc4ccc(OC)c(OC)c4)C(=O)[C@@H]32)cc1,inactive: -15.1%,
Cc1ccc(S(=O)(=O)Nc2ccc(Nc3nccn4c(-c5cccc(OC(F)(F)F)c5)cnc34)cc2)cc1,,active: 18.4 µM
c1cncc(CNc2ccnc(-c3ccc4c(c3)OCO4)n2)c1,,active: 8.2 µM
Cc1cc(C)n(CC(O)CN2c3ccccc3Sc3ccccc32)n1 (stereo unspecified),,"inconclusive [inhibitor, partial curve]"
Cc1cccc(Nc2nc(N)c(C#N)c(CC#N)c2C#N)c1,,"inconclusive [inhibitor, single point]"
Cc1cc(C)c(S(=O)(=O)N(C)Cc2cnn(C)c2)c(C)c1,,"inconclusive [inhibitor, single point]"
COc1ccccc1CNCC(=O)Nc1cc(S(=O)(=O)N2CCOCC2)ccc1Cl,,"inconclusive [inhibitor, single point]"
CS(=O)(=O)N1CCN(C(=O)c2cc(-c3cccnc3)nc3ccc(Cl)cc23)CC1,inactive: 0%,
O=C(NCCCN1CCOCC1)c1ccc(Sc2ccc(F)cc2)c([N+](=O)[O-])c1,,"inconclusive [inhibitor, single point]"
CCc1ccccc1NC(=O)Nc1cccc(F)c1,,"inconclusive [inhibitor, single point]"
COC(=O)c1ccc(NC(=O)CN2C(=O)NC3(CCC(C)CC3)C2=O)cc1 (stereo unspecified),,"inconclusive [inhibitor, single point]"
